# ± gives the standard deviation of the averaged measurements. This is one part of the list.
# System: PfAP2-G AP2 domain (GST-tagged)
# Assay: gcPBM binding intensity (ln(normalized median fluorescence intensity)); higher = stronger DNA binding
# How it was run: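 After 1 h on an Agilent 4 × 180k array of primer-extended double-stranded 36-bp intergenic genomic probes and negative controls, bound GST-tagged P. falciparum DNA-binding domains were detected with Alexa488 anti-GST antibody and scanned at 488 nm. The domains had been expressed in E. coli, and binding took place in 1× PBS with 1% milk, 0.2 mg/ml BSA, 0.5% salmon testes DNA and 0.03% Triton X-100. Binding intensity is the highest Masliner-normalised natural-log median intensity across replicate spots of either probe orientation.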
row,Sequence,gcPBM binding intensity (ln)
1,TTAACCACTAAAAGTACACACATATATACCTATATA [CACACA_site6026],11.6 ± 0.97
2,TTTTAATAATATGGATGTACATAAAAATAAATAAAT [XGTACX_site7937],11.3 ± 0.62
3,CTTGGTAGTTTTTTCTTATAATCTAATTATTAATAA [CACACA_negctrl_site153],10.2 ± 0.21
4,TTAATATATAATAAATTTTTTTTTTTTTTTTTTTTT [CACACA_negctrl_site892],10.6 ± 0.36
5,ATATATTAATATGTGTGTACTTAACCATTCATATGT [XGTACX_site7395],11.1 ± 0.69
6,TTAATATGAAAACTCTGTACCCAACCTTCTTATGGA [XGTACX_site2126],11.1 ± 0.71
7,TATATAAATATATAATGTACGTTTTAAAAATAATAT [XGTACX_site3881],11.2 ± 0.83
8,AAAACATAAATACATACACACATAATATATATTAAG [CACACA_site4239],9.92 ± 0.099
9,TTTTTTTAAAATATGAGTACATAATATTGTAAAAAT [XGTACX_site6536],11.4 ± 0.9
10,TAGTATTATTTTTTTTGTACATATAAATGTAAAATA [XGTACX_site5282],11 ± 0.71
11,TTATTTAAAATGAAAAGTACATATTACTTTCTCACA [XGTACX_site5043],11.2 ± 0.82
12,TCTTGTTTTAATTTTTATATTATTATTTAGATATAT [CACACA_negctrl_site921],9.7 ± 0.17
13,ATACATATACACATTTGTACATATTCCTTTTTATCG [XGTACX_site1731],10.9 ± 0.41
14,TACTAAATGATCATATGTACACATGTTTACTTTTTA [XGTACX_site1253],11.4 ± 0.96
15,ATTATGATATATATATGTACATATATATAATATAAT [XGTACX_site259],11.2 ± 0.78
16,TCTATGAATTAATATGCATGTAACGTATTTATACTT [TGCATGCA_site669],9.95 ± 0.071
17,TGGATATATGTAAAAATTGCAAGAAAGATAAAAGGA [CACACA_negctrl_site64],10 ± 0.028
18,TATAAAAGGAAACACACACACATATATATATATATA [CACACA_site939],10 ± 0.36
19,AAAAAAAAAAAAAGTGCACACTTTTAATATAAATAT [CACACA_site3314],10.7 ± 0.5
20,TTTTTTTTTTTCCTTACACACATATTTCATTTTATA [CACACA_site747],9.935 ± 0.021
21,TTTTTATTTTTTAGTAGTACACACTTTTTGAACCTT [XGTACX_site1091],11.6 ± 0.97
22,TTTTATATATATTATACACACAAGGAAAAAAAAAAA [CACACA_site3677],10.3 ± 0.36

row,Sequence,gcPBM binding intensity (ln)
1,AAGTATCAAAAATAAAGTACATATTTTGTAGGCAGG [XGTACX_site1463],11.4 ± 0.71
2,TTATAATATAAAAAATGTACATTAAAAAAAAAGATT [XGTACX_site8950],11.2 ± 0.8
3,CAAAAAATATATTTTTGTACTTATGTTTTTATTTTG [XGTACX_site5230],11.1 ± 0.76
4,TAGTATAATATGAACACACACACACCCACAAAAAAA [CACACA_site2009],10.4 ± 0.3
5,AAGGGAAAAAAAAAAGCACACATACGTAAATATATA [CACACA_site7960],10.1 ± 0.15
6,AAAAGATAAAATTATGCACACATACGAATAATTTTA [CACACA_site8497],10 ± 0.11
7,TATTTCACACAGTATATATATATATATATATATATA [TGCATGCA_negctrl_site118],10.1 ± 0.61
8,CACATAATGAAAAATACACACATGTATATTTATAAA [CACACA_site2736],10.065 ± 0.007
9,ATCTGACAAAAGTGTACACATATATATATATATATA [CACACA_site4814],11.7 ± 1.2
10,AAATGGGAAATTTCATGTACTCATTTACCCTTATTA [XGTACX_site4740],11.2 ± 0.64
11,GTTAATTTTTGTATAGTGCAAAAATATAATAGTATG,10.2 ± 0.2
12,TGTTGGTATGTGAATGCATGCATATAAGTCTATCTG [TGCATGCA_site780],9.85 ± 0.042
13,TTGAAGTATAATAAAGTGCAAAATTATAATGATCTT [GTGCAC_site9639],10 ± 0.071
14,TATTTATAACAAAGGTTAAATTAAAACTAATCCACA [TGCATGCA_negctrl_site3],9.9 ± 0.18
15,GCCAAAATCTAATTTACACACTTATTAAATAATTAC [CACACA_site6251],9.98 ± 0.071
16,AATCCCCACTTGTCAAGTACATATATCATGGATGAA [XGTACX_site3486],10.9 ± 0.55
17,TTTTTTTTCATTGGTTGTACAATATTTATAATTCAC [XGTACX_site7036],11.4 ± 0.65
18,TTTTTTTTTTTTTTTTGTACTTATAAAAAATTTTTT [XGTACX_site1249],11.1 ± 0.88
19,TACAGATATAAACACACACACATATATATATATATA [CACACA_site4846],10.1 ± 0.31
20,GACATAGTCATATACTGTACTTTATATTATTGTGTA [XGTACX_site6636],11.3 ± 0.96
21,ATGTAATATTTACAACGTACAAATTATAAACATATT [XGTACX_site603],10.8 ± 0.37
22,TCATATTGGCTGTTCTGTACTTATAAGTTTTAAAGA [XGTACX_site5593],11.4 ± 0.85

row,Sequence,gcPBM binding intensity (ln)
1,TTTGTTAATATAAAAACACACAAAAATAACATAAAA [CACACA_site2619],10.2 ± 0.22
2,TATATTAAAAAAGAGGTGCATTCGTAAGAGGTTAAA [GTGCAC_site9720],10.05 ± 0.064
3,GTACAAAAAAAAATAAAATACATATATATATATATA [GTGCAC_negctrl_site364],10.6 ± 0.57
4,CACTTTTCTGGAAAAATTCCCACATTTTTTTATTAA [GTGCAC_negctrl_site322],10.3 ± 0.27
5,AAAAAAAAAAAAAACACACACACACGCATAAATATA [CACACA_site6217],10.2 ± 0.2
6,AAAAAATTCATATATACACACACGCACATATATATA [CACACA_site4226],10 ± 0.13
7,AAAATATTTCATATATGTACTTAAAAAAAAAAAAAA [XGTACX_site5399],11.2 ± 1
8,TATTATATATATGTTGACATATTTGTACACTCCACT [TGCATGCA_negctrl_site200],11.1 ± 0.84
9,GAATATATAAGATACACACACAAATTAAATATAAAA [CACACA_site2781],10.095 ± 0.007
10,CATATAATATAATTATGTACATATATAATAATATAC [XGTACX_site5278],11.2 ± 0.69
11,AAAAAAAAAAAAAAACGTACACATATTATGTTATTT [XGTACX_site5264],11.5 ± 1
12,GATAAAGTACTTTATACACACAAATATTTATTTATA [CACACA_site7795],11.1 ± 0.7
13,TCTTCATATAAGAACACATGCAGATTTTTATTATTG [TGCATGCA_site682],10.2 ± 0.17
14,TTATGTAAAAAAAAAAAAAAAAAAAAAAAAAAAAAA [CACACA_negctrl_site984],9.65 ± 0.37
15,AAAAAAAAGTTGTATTGTACAAAAAAAAAAAAAAAA [XGTACX_site8334],10.8 ± 0.83
16,TCATAAAAACTAATACGTACTTAAAAATATGAACTT [XGTACX_site2939],11.3 ± 0.71
17,TTTATATAACAACAAAATGGAAATATATATGTATGT [TGCATGCA_negctrl_site98],9.96 ± 0.11
18,TATTTACAAAAAAAATATAAAAAATATAAAATATAT [CACACA_negctrl_site575],9.36 ± 0.32
19,TGTATAATATTTGGTGCACACAAATTAACAACTGTT [CACACA_site9245],10.7 ± 0.6
20,AATATTAAAATAAAAAGTACTTATTTATGTATGTTG [XGTACX_site2682],11.2 ± 0.64
21,AAAAAAAAAAAAGAACGTACAAATTAATTTATAGAA [XGTACX_site5584],11.2 ± 0.83
22,TGTTTATTACTCAGGTGTACTCAATTTTTTTTTTTT [XGTACX_site3470],11.5 ± 0.86

row,Sequence,gcPBM binding intensity (ln)
1,CAGACATATTAAAAGAGTACATATATATATATATAT [XGTACX_site1158],11.4 ± 0.93
2,TAATATTGACTATATACACACATATATATATATATA [CACACA_site575],10.1 ± 0.35
3,TACACAAATATATACATACACACATATATACGCATA [CACACA_site394],10.1 ± 0.13
4,AAATGAATAAATAGGTCACACACAAATATATATAAA [CACACA_site8764],10.4 ± 0.36
5,ATATATATATATATATGTACATATACATATGTGCAA [XGTACX_site5604],11.2 ± 0.45
6,AATAAATAAAGAAGTACACACATATATATATATATA [CACACA_site4314],11.7 ± 1.1
7,TATTTTTAAAATATAAGTAAAAAAATAATATAAACT [TGCATGCA_negctrl_site283],10.1 ± 0.11
8,AGTACATTTTTGTGTGTGCACTAATATTATATACTT [GTGCAC_site9568],10.8 ± 0.56
9,TAATTTCTTAGGTATTGTACAAATATTATATGATAT [XGTACX_site256],10.9 ± 0.42
10,ATATATCTATAAAAGGCTTCCCACTTTTTTTGTCAA [TGCATGCA_negctrl_site332],9.78 ± 0.16
11,ATAATAAAAAAAATTAGTACATATATAAATATAAAT [XGTACX_site1937],11.1 ± 0.73
12,ATTCTACCACGCGATATACACACTTGTAGACATCTT [CACACA_site188],10.3 ± 0.2
13,TATAATGTATGTAGTGCACACCTCTATAATATATTA [CACACA_site8560],10.6 ± 0.3
14,AAATTTATGTGTGCCTGTACATATCAAAGATTTAAG [XGTACX_site8547],10.9 ± 0.54
15,CGCAATTAAAATATGTGTCCTCATTTTATAACATTT [XGTACX_site5340],11.2 ± 0.65
16,ATTTATTTTATTTTCACACACAAAAATAAATATCCG [CACACA_site2414],10.07 ± 0.099
17,ATAAAAAAAAAAAAAAGTACACATATAAAAGTATTG [XGTACX_site8265],11.6 ± 0.91
18,TAAATAATATCTATCACACACGCATAAATACAGATA [CACACA_site5449],9.995 ± 0.035
19,CTAAATTGTTAATAGAGTACATTTGTATAATATAAG [XGTACX_site594],11.1 ± 0.73
20,GTGTACAAAATATGGTAATAAAGTAGTTACATGAAT [CACACA_negctrl_site1775],11 ± 0.58
21,TATGTGAAATAAGGATGTACAATTTTGATTTCCCCA [XGTACX_site8389],11.1 ± 0.44
22,AATAAAATATAATAATTAATATATATATATATATAA [GTGCAC_negctrl_site457],9.47 ± 0.11
